The values below come from PMC4336329 (PLoS ONE, 2015).

Each structure is given as a SMILES string. The campaign covered roughly 310,000 compounds. About 14,000 (4.5%) showed an effect of 50% or more. The effect is printed as a negative number. The list shows a part of the results.
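Also: peak tail current of the secondary pulse compared with the same well before compound.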

For the assay, the target named is human ether-à-go-go-related gene (hERG) potassium channel (human, UniProt Q12809). Nature of the assay: primary screen, population patch clamp on CHO cells stably expressing hERG.
human ether-à-go-go-related gene (hERG) potassium channel, sequence (Q12809 whole entry, looked up): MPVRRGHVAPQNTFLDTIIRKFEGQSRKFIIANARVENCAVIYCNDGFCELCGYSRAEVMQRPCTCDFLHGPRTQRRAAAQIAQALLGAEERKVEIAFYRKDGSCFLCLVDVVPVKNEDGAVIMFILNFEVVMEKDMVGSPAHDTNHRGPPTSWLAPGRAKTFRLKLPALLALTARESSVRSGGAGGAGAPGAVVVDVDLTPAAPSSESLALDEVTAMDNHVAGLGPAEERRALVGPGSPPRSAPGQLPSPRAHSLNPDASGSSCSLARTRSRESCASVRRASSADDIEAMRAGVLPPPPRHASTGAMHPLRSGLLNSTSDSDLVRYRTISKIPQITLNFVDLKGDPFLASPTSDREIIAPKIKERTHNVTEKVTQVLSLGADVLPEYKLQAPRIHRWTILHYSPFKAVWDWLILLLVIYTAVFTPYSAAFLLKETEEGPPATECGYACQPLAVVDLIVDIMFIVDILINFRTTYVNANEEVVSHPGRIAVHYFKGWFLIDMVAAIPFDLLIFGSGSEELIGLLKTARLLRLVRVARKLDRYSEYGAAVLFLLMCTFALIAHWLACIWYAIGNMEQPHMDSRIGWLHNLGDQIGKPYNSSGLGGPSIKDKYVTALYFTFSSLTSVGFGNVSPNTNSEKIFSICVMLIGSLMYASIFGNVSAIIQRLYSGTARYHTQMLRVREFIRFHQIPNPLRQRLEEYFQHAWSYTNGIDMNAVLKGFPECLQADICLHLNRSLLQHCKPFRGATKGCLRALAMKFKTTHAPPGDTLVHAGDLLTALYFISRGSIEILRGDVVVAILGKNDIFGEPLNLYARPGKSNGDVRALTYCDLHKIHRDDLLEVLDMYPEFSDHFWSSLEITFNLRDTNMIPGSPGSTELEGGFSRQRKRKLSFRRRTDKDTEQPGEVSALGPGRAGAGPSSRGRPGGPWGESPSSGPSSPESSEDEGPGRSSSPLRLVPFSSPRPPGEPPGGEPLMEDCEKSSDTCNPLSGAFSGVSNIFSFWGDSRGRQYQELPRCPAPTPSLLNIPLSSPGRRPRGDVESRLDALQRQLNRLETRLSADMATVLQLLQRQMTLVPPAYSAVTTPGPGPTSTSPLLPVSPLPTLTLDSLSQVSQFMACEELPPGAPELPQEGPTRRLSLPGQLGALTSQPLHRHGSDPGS
Take `CCOCC(=O)Nc1ccc(-c2cn3cccnc3n2)cc1`: the “hERG current change (%, negative = inhibition) at 10uM” value is listed as -11.6%.

Take `CC(C)c1ccccc1OCC(=O)NN1C(=O)c2ccccc2C1=O`: the “hERG current change (%, negative = inhibition) at 10uM” value turned out to be 6.27%.

With `O=C(c1ccccc1)c1ccc(OCCO)cc1`, the “hERG current change (%, negative = inhibition) at 10uM” value was 15.8%.

For the compound `N#CC1=C(N)C(C#N)(C#N)[C@H](c2c(F)cccc2F)[C@H]2CC3(CC=C12)OCCO3`, the “hERG current change (%, negative = inhibition) at 10uM” value was -9.59%.

For the compound `Cc1nc(C(=O)N(C)C)nn1-c1ccc([N+](=O)[O-])cc1`, the “hERG current change (%, negative = inhibition) at 10uM” value is given as -0.782%.

`COc1ccccc1C(=O)N/C(=C/c1ccc(Br)cc1)C(=O)NCC(=O)O`: the “hERG current change (%, negative = inhibition) at 10uM” value is listed as -8.44%.

`Cc1nc2c(C(=O)NCc3ccc4c(c3)OCO4)c[nH]n2c(=O)c1Cl`: the “hERG current change (%, negative = inhibition) at 10uM” value is 7.05%.

For `O=C(O)CSc1nc(SCc2ccccc2Cl)nc2c1CCCC2`, the “hERG current change (%, negative = inhibition) at 10uM” value turned out to be 15.4%.

As to `Cc1nnc(NC(=O)CN2C(=O)NC3(CCCC3)C2=O)s1`, the “hERG current change (%, negative = inhibition) at 10uM” value came out at 6.62%.

Turning to `COc1cc(CCC(=O)OCC(=O)NCC2CCCCC2)cc(OC)c1OC`, the “hERG current change (%, negative = inhibition) at 10uM” value stood at 15.3%.

Regarding `CCn1c(CSc2nc3ccccc3s2)nnc1SCC(=O)NCC(=O)OC`, the “hERG current change (%, negative = inhibition) at 10uM” value is recorded as -10.2%.

For `Cc1ccc(S(=O)(=O)N2CCN(C(=O)CSCc3ccc(C(C)C)cc3)CC2)cc1`, the “hERG current change (%, negative = inhibition) at 10uM” value is -10.5%.

For the compound `Cc1nn(CCOc2ccccc2)c(=O)n1-c1cccc(F)c1`, the “hERG current change (%, negative = inhibition) at 10uM” value was -7.04%.

Turning to `CCn1c(CNc2cccc(Cl)c2)nnc1SCC(=O)OC1CCCCC1`, the “hERG current change (%, negative = inhibition) at 10uM” value is listed as -25%.

Consider `CCN(CC)C(=O)CSc1nc2c(sc(=S)n2-c2ccccc2)c(=O)n1-c1ccc(OC)c(OC)c1`, for which the “hERG current change (%, negative = inhibition) at 10uM” value is -2.68%.

For `N#C/C(=C/c1ccc(Sc2nc3ccccc3[nH]2)o1)c1ccccc1F`, the “hERG current change (%, negative = inhibition) at 10uM” value was -7.86%.

Take `COc1ccc(CCNC(=O)Cc2cc(=O)[nH]c(=O)[nH]2)cc1OC`: the “hERG current change (%, negative = inhibition) at 10uM” value is recorded as -9.44%.

As for `CCCn1nc2cc(C(=O)NCc3ccc(C)cc3)ccc2c1OCC`, the “hERG current change (%, negative = inhibition) at 10uM” value is recorded as -1.4%.

With `CCCc1cc(=O)oc2cc(OCC(=O)NC3CC(C)(C)NC(C)(C)C3)ccc12`, the “hERG current change (%, negative = inhibition) at 10uM” value is given as -1.9%.

`CCOC(=O)/C=C1\SCC(=O)N1CC(=O)NC(C)c1ccccc1` (stereo not shown): the “hERG current change (%, negative = inhibition) at 10uM” value is on record as -15.2%.

In the case of `CCCc1cc(=O)oc2cc(C)cc(OCC(=O)NCC(O)c3ccccc3)c12` (stereo not shown), the “hERG current change (%, negative = inhibition) at 10uM” value was 13.5%.

For `O=C(Nc1cc2c(=O)n(-c3ccc(Oc4ccccc4)cc3)ccc2oc1=O)c1ccccc1`, the “hERG current change (%, negative = inhibition) at 10uM” value is 9.1%.

Take `N#C/C(=C\c1ccc(-c2cccc([N+](=O)[O-])c2)o1)C(=O)Nc1nc(-c2cccs2)cs1`: the “hERG current change (%, negative = inhibition) at 10uM” value is listed as -2.87%.

For `CN(Cc1ccccc1C#N)S(=O)(=O)c1cccs1`, the “hERG current change (%, negative = inhibition) at 10uM” value amounted to 14.8%.

`CN1CCN(C(=O)C2=C[C@@H](c3coc4ccccc4c3=O)C[C@@H](OCCCCO)O2)CC1`: the “hERG current change (%, negative = inhibition) at 10uM” value is given as 0.749%.

For `COc1ccc(Cl)cc1NC(=O)CN(C1CCCCC1)S(C)(=O)=O`, the “hERG current change (%, negative = inhibition) at 10uM” value is -37.5%.

For the compound `COc1cc(NC(=O)c2ccccc2)c(OC)cc1NC(=O)CN1C(=O)NC2(CCCCC2)C1=O`, the “hERG current change (%, negative = inhibition) at 10uM” value is -70.3%.

`c1ccc(CCn2nnnc2C(c2cccnc2)N2CCN(c3ccccc3)CC2)cc1` (stereo not shown): the “hERG current change (%, negative = inhibition) at 10uM” value is on record as -47.6%.

Consider `O=C(NC1CCCCC1)NC1CC2CCC(C1)N2Cc1nnnn1Cc1ccc2c(c1)OCO2` (stereo not shown), for which the “hERG current change (%, negative = inhibition) at 10uM” value was -39.8%.

As to `COc1ccccc1NS(=O)(=O)c1ccc2oc(SC(C)C(=O)N3CCNC3=O)nc2c1` (stereo not shown), the “hERG current change (%, negative = inhibition) at 10uM” value is reported as -26.6%.

As for `CCOc1ccc(C(=O)Nc2cccc(C(=O)O)c2C)cc1Cl`, the “hERG current change (%, negative = inhibition) at 10uM” value is listed as 25.2%.

Regarding `Cc1[nH]c2ccccc2c1C(=O)CSc1ccc(F)cc1`, the “hERG current change (%, negative = inhibition) at 10uM” value amounted to 25%.

For the compound `Cc1nnc(SCC(=O)NCC2CCCCC2)n(N)c1=O`, the “hERG current change (%, negative = inhibition) at 10uM” value worked out at 10.9%.

`CC(=O)c1c(C)[nH]c(C(=O)OCC(=O)Nc2ccc(Cl)cc2[N+](=O)[O-])c1C`: the “hERG current change (%, negative = inhibition) at 10uM” value is reported as -8.48%.

For the compound `COC(=O)C1=C(c2ccccc2)C[C@@H]2CC[C@H]1N2C(=O)NCCNC(C)=O`, the “hERG current change (%, negative = inhibition) at 10uM” value was -2.15%.

`C[Se]C[C@@H](N)C(=O)O.Cl`: the “hERG current change (%, negative = inhibition) at 10uM” value is given as 12.3%.

Regarding `COCCCNC(=O)CCn1nc(-c2ccc(Cl)cc2)ccc1=O`, the “hERG current change (%, negative = inhibition) at 10uM” value was -27.9%.

Consider `COc1ccc(OC)c(/C=N/NC(=O)c2ccc(N(C)S(=O)(=O)c3ccccc3)cc2)c1`, for which the “hERG current change (%, negative = inhibition) at 10uM” value is 6.58%.

With `O=C(CN(C(=O)CNC(=O)c1cccs1)c1ccccc1)NC1CCCCC1`, the “hERG current change (%, negative = inhibition) at 10uM” value stood at 3.72%.

As for `O=C(N/N=C/c1c(O)n(Cc2ccccc2)c(=O)[nH]c1=O)c1ccccc1`, the “hERG current change (%, negative = inhibition) at 10uM” value is recorded as 19%.

With `CN(C(=O)CSc1nc2ccc(Br)cc2c(=O)n1Cc1ccco1)C1CCS(=O)(=O)C1` (stereo not shown), the “hERG current change (%, negative = inhibition) at 10uM” value is -79.6%.

Consider `CSc1ccccc1C(=O)C1CCCN(Cc2cnn(-c3ccccc3)c2)C1` (stereo not shown), for which the “hERG current change (%, negative = inhibition) at 10uM” value is listed as -67.4%.

For the compound `CCOC(=O)c1c(NC(=O)c2cccs2)sc2c1CCC2`, the “hERG current change (%, negative = inhibition) at 10uM” value is reported as 25.3%.
